Results on 15 sequences are retold here after the supplement of paper PMC7826260.

What all share (assay): uncleaved DNA left, log2 of reads against the no-enzyme library (log2 ratio); higher = less cleavage (more negative = more Rep cleavage of the k-mer); sequences stand for … in CTCGTCCG…ACCGGAGA
The test system of assay [1] is T1, Rep nickase domain of Muscovy duck circovirus.
T1 sequence (residues 1-111 of Rep, tag left off): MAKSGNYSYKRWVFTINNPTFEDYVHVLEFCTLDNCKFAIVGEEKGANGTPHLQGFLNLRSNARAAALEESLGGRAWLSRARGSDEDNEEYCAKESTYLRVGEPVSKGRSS
The method, then:
(§1)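 A pool of 90-nt single-stranded DNAs with seven random bases just before the constant AC of the nick site (name = the seven bases) was cut by 3 µM recombinant His6-SUMO-tagged Rep nickase domain (300 nM DNA, 50 mM HEPES pH 8.0, 50 mM NaCl, 1 mM MnCl2, 1 h, 37 °C, three replicates). Uncut DNA was amplified and sequenced.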

The test system of assay [2] is T2, Rep nickase domain of banana bunchy top virus.
T2 sequence (residues 1-94 of Rep, tag left off): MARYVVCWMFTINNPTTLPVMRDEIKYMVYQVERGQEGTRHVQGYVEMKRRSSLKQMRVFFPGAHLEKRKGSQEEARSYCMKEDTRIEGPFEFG
Here is the method:
as §1

The test system of assay [3] is T3, Rep nickase domain of cabbage leaf curl virus.
T3 sequence (residues 1-116 of Rep, tag left off): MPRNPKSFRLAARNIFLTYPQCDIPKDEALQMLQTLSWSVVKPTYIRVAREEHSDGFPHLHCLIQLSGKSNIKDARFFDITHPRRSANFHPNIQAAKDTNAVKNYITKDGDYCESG
The method, then:
as §1

Assay [4] relates to T4, Rep nickase domain of chickpea chlorotic dwarf virus.
T4 sequence (residues 1-124 of Rep, tag left off): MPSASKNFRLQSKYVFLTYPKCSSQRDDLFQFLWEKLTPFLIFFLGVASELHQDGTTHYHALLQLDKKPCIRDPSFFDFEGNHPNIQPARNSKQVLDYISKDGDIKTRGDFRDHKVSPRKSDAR
The method, then:
as §1

Assay [5] has as its system T5, Rep nickase domain of faba bean necrotic yellows virus.
T5 sequence (residues 1-98 of Rep, tag left off): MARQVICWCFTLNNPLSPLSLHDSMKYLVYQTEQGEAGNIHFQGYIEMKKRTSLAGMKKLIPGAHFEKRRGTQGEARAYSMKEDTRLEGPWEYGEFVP
Here is the method: as §1
In assay [6] the test system is T6, Rep nickase domain of maize striate mosaic virus.
T6 sequence (residues 1-117 of Rep, tag left off): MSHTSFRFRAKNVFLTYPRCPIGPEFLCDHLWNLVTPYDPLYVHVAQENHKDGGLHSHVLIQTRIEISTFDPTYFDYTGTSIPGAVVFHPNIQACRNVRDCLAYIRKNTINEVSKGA
Here is the method:
as §1

In assay [7] the test system is T7, Rep nickase domain of porcine circovirus 2.
T7 sequence (residues 2-116 of Rep, tag left off): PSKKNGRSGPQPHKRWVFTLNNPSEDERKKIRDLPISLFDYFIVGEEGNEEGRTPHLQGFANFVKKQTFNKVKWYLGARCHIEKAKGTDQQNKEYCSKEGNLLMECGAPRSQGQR
Here is the method:
as §1

Assay [8] deals with T8, Rep nickase domain of tomato golden mosaic virus.
T8 sequence (residues 1-124 of Rep, tag left off): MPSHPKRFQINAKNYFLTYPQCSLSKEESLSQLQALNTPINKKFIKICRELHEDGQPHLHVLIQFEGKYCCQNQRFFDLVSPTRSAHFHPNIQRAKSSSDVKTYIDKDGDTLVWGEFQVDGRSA
The method, then:
as §1

In assay [9] the test system is T9, Rep nickase domain of tomato yellow leaf curl virus.
T9 sequence (residues 1-136 of Rep, tag left off): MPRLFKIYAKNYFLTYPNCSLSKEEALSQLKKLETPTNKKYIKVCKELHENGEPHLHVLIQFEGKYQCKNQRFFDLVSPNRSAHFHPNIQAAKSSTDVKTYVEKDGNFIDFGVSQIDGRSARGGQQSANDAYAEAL
The method, then: as §1
The subject of assay [10] is T10, Rep nickase domain of wheat dwarf virus.
T10 sequence (residues 1-137 of Rep, tag left off): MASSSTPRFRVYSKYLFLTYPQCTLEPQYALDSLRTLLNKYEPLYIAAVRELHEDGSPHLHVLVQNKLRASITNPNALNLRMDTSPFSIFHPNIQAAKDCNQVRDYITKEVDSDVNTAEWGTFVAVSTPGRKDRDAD
The method, then:
as §1

The other results are listed elsewhere or left out. Each Rep nickase domain was tested in vitro on the same pool of single strands for 1 h at 37 °C with 3 µM enzyme; only the middle of the 90-letter strands is printed. Uncut reads are compared with the no-enzyme pool on a log2 scale; strong cutting gives strongly negative numbers. There is no active / inactive call. Shares of all reads are compared; uncut strands gain when others are lost, and binding without cutting may add a little.

As for GTGCGGT, the “uncleaved DNA left (log2)” value in [1] is -0.0361; in assay [2], -0.197; in [3], -0.204; in assay [4] it was -0.000666; in [5], -0.125; in assay [6] it was -0.21. Besides, the “uncleaved DNA left (log2)” value was 0.0545 in assay [7], -0.0441 in [8], -0.056 in assay [9] and -0.0801 in [10].

With GCCTCAA, the “uncleaved DNA left (log2)” value in assay [1] is -0.0128; in assay [2], 0.0773; in [3] it was 0.0729; in assay [4], 0.367; in [5] it was -0.0674; in assay [6], 0.173. The “uncleaved DNA left (log2)” value in assay [7] was 0.0262; in [8], -0.0237; in assay [9] it was 0.00699; in assay [10], -0.0361.

Consider AAGGGCA, for which the “uncleaved DNA left (log2)” value in [1] was determined as 0.0771; in [2], 0.0178; in [3] it was 0.173; in assay [4], 0.437; in [5] it was 0.0974; in assay [6] it was 0.27. In addition, the “uncleaved DNA left (log2)” value in [7] is -0.0182; in [8], 0.069; in assay [9] it was -0.0151; in assay [10] it was 0.0919.

For the sequence ACCATGA, the “uncleaved DNA left (log2)” value in assay [1] was 0.02; in assay [2], 0.0867; in assay [3], -0.447; in [4], -0.261; in [5], 0.137; in assay [6], -0.994. Moreover, the “uncleaved DNA left (log2)” value in [7] is 0.26; in assay [8], 0.203; in assay [9] it was 0.147; in assay [10] it was -0.0319.

AGTTCAA: the “uncleaved DNA left (log2)” value is 0.0318 in [1]; 0.192 in assay [2]; 0.206 in assay [3]; 0.324 in assay [4]; -0.000157 in assay [5]; -0.159 in assay [6]. Further, the “uncleaved DNA left (log2)” value is -0.415 in [7], 0.0155 in [8], 0.0847 in assay [9] and 0.179 in [10].

Consider GACAGGA, for which the “uncleaved DNA left (log2)” value came out at 0.154 in [1]; 0.152 in assay [2]; 0.36 in assay [3]; 0.695 in [4]; 0.00521 in assay [5]; 0.526 in assay [6]. Also, the “uncleaved DNA left (log2)” value worked out at 0.193 in assay [7], 0.12 in [8], 0.199 in assay [9] and 0.174 in assay [10].

For the sequence AGACAGT, the “uncleaved DNA left (log2)” value came out at 0.136 in assay [1]; 0.0618 in assay [2]; 0.679 in assay [3]; 1.32 in [4]; 0.168 in assay [5]; 1.67 in assay [6]. The “uncleaved DNA left (log2)” value in [7] amounted to 0.137; in assay [8] it was 0.0745; in assay [9], 0.177; in assay [10] it was 0.218.

In the case of GTCAGAC, the “uncleaved DNA left (log2)” value in [1] is -0.0375; in assay [2], 0.0588; in assay [3], 0.495; in [4] it was 1.13; in assay [5], 0.0962; in assay [6] it was 1.65. Further, the “uncleaved DNA left (log2)” value in [7] came out at 0.192; in [8], 0.076; in assay [9], 0.0493; in [10] it was 0.0893.

For GCTTATC, the “uncleaved DNA left (log2)” value in assay [1] is 0.0085; in [2], 0.16; in assay [3], 0.385; in assay [4] it was 1.08; in assay [5], -0.0534; in assay [6], 0.697. Moreover, the “uncleaved DNA left (log2)” value came out at 0.14 in assay [7], 0.0884 in assay [8], 0.0777 in [9] and 0.19 in assay [10].

Take AAGGGTG: the “uncleaved DNA left (log2)” value in [1] is 0.157; in [2], 0.073; in assay [3], -0.178; in assay [4] it was 0.276; in assay [5], -0.0219; in [6], -0.17. The “uncleaved DNA left (log2)” value in assay [7] is 0.21; in assay [8], 0.0898; in assay [9], -0.0091; in assay [10] it was 0.0594.

As to CTATGCT, the “uncleaved DNA left (log2)” value in assay [1] was -1.77; in assay [2], -0.0165; in [3], -1.76; in assay [4], -1.86; in [5], -0.0557; in [6], -1.46. Also, the “uncleaved DNA left (log2)” value was -1.99 in [7], -0.28 in assay [8], -0.0519 in assay [9] and -0.255 in assay [10].

Turning to GTAACCA, the “uncleaved DNA left (log2)” value was 0.00394 in [1]; 0.0188 in assay [2]; 0.185 in assay [3]; 0.502 in assay [4]; -0.0854 in assay [5]; 1.5 in assay [6]. Besides, the “uncleaved DNA left (log2)” value in [7] was -0.0809; in assay [8] it was 0.0174; in assay [9], 0.0588; in assay [10], 0.112.

Turning to CACGTGA, the “uncleaved DNA left (log2)” value was -0.034 in [1]; -0.098 in [2]; -0.235 in assay [3]; -0.636 in assay [4]; -0.15 in [5]; -0.829 in assay [6]. Moreover, the “uncleaved DNA left (log2)” value was 0.00489 in assay [7], -0.188 in assay [8], -0.108 in assay [9] and -0.172 in [10].

Turning to CTGTTGA, the “uncleaved DNA left (log2)” value was 0.0422 in assay [1]; 0.0135 in assay [2]; -0.308 in assay [3]; -0.369 in assay [4]; 0.073 in assay [5]; -1.06 in [6]. For the same sequence, the “uncleaved DNA left (log2)” value in [7] was 0.0358; in assay [8], -0.053; in assay [9], 0.0314; in assay [10] it was -0.113.

On to CGAGCGC, for which the “uncleaved DNA left (log2)” value in assay [1] was -0.0904; in assay [2] it was -0.0178; in assay [3], -0.112; in assay [4], 0.332; in [5] it was -0.069; in [6] it was 0.273. Further, the “uncleaved DNA left (log2)” value in assay [7] was 0.000642; in assay [8], 0.0475; in assay [9], -0.0543; in [10] it was 0.0786.
